# Measurements as given in the supplement of paper PMC8728848.
# This is one part of the list.
# B1: SLR2P2A3 (Tachypleus tridentatus), TAL2_TACTR (protein)
# chain: MEKGTPPTHDSDNWMGRAKKIGNGGWNQFQFLFFDPNGYLYAVSKDKLYKASPPQSDTDNWIARATEIGSGGWSGSKFLFFHPNGYLYAVHGQRLYKALPPVSNQD
# Assays:
# Assay in all cases: glycan array binding signal (z-score within array); higher = stronger binding
# Settings in all cases: glycan notation: IUPAC condensed, linker removed
# Fuc(a1-2)Gal = biological target: Fuc(a1-2)Gal
# Outline: (§1)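 The binding signal is a Z-score computed within each array and averaged over linkers. Arrays of the same protein sequence at different concentrations or buffers were also averaged together. Data originate from 3228 arrays in the Consortium for Functional Glycomics database, kept only where the protein sequence was available.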
# Fuc(a1-2)Gal(b1-3)GalNAc = biological target: Fuc(a1-2)Gal(b1-3)GalNAc
# Outline: as §1
# [1] = biological target: Fuc(a1-2)Gal(b1-3)GalNAc(b1-3)Gal
# Outline: as §1
# [2] = biological target: Fuc(a1-2)Gal(b1-3)GalNAc(b1-3)Gal(a1-4)Gal(b1-4)Glc
# Outline: as §1
# [3] = biological target: Fuc(a1-2)Gal(b1-3)GalNAc(b1-4)[Neu5Ac(a2-3)]Gal(b1-4)Glc
# Outline: as §1
# Fuc(a1-2)Gal(b1-3)GlcNAc = biological target: Fuc(a1-2)Gal(b1-3)GlcNAc
# Outline: as §1
# [4] = biological target: Fuc(a1-2)Gal(b1-3)GlcNAc(b1-3)Gal(b1-4)Glc
# Outline: as §1
# [5] = biological target: Fuc(a1-2)Gal(b1-3)[Fuc(a1-4)]GlcNAc
# Outline: as §1
# Fuc(a1-2)Gal(b1-4)Glc = biological target: Fuc(a1-2)Gal(b1-4)Glc
# Outline: as §1
# Fuc(a1-2)Gal(b1-4)Glc6S = biological target: Fuc(a1-2)Gal(b1-4)Glc6S
# Outline: as §1
# Fuc(a1-2)Gal(b1-4)GlcNAc = biological target: Fuc(a1-2)Gal(b1-4)GlcNAc
# Outline: as §1
# [6] = biological target: Fuc(a1-2)Gal(b1-4)GlcNAc(b1-3)Gal(b1-4)GlcNAc
# Outline: as §1
# [7] = biological target: Fuc(a1-2)Gal(b1-4)GlcNAc(b1-3)Gal(b1-4)GlcNAc(b1-3)Gal(b1-4)GlcNAc
# Outline: as §1
# [8] = biological target: Fuc(a1-2)Gal(b1-4)GlcNAc6S
# Outline: as §1
# [9] = biological target: Fuc(a1-2)Gal(b1-4)[Fuc(a1-3)]GlcNAc
# Outline: as §1
# [10] = biological target: Fuc(a1-2)Gal(b1-4)[Fuc(a1-3)]GlcNAc(b1-3)Gal(b1-4)[Fuc(a1-3)]GlcNAc
# Outline: as §1
# [11] = biological target: Fuc(a1-2)Gal(b1-4)[Fuc(a1-3)]GlcNAc(b1-3)Gal(b1-4)[Fuc(a1-3)]GlcNAc(b1-3)Gal(b1-4)[Fuc(a1-3)]GlcNAc
# Outline: as §1
# Fuc(a1-2)Gal6S(b1-4)Glc = biological target: Fuc(a1-2)Gal6S(b1-4)Glc
# Outline: as §1
# [12] = biological target: Fuc(a1-2)Gal6S(b1-4)Glc6S
# Outline: as §1
# [13] = biological target: Fuc(a1-2)Gal6S(b1-4)GlcNAc
# Outline: as §1
# Fuc(a1-2)[Gal(a1-3)]Gal = biological target: Fuc(a1-2)[Gal(a1-3)]Gal
# Outline: as §1
# [14] = biological target: Fuc(a1-2)[Gal(a1-3)]Gal(b1-3)GlcNAc
# Outline: as §1
# [15] = biological target: Fuc(a1-2)[Gal(a1-3)]Gal(b1-4)Glc
# Outline: as §1
# [16] = biological target: Fuc(a1-2)[Gal(a1-3)]Gal(b1-4)GlcNAc
# Outline: as §1
# [17] = biological target: Fuc(a1-2)[Gal(a1-3)]Gal(b1-4)[Fuc(a1-3)]GlcNAc
# Outline: as §1
# [18] = biological target: Fuc(a1-2)[Gal(a1-4)]Gal(b1-4)GlcNAc
# Outline: as §1
# [19] = biological target: Fuc(a1-2)[GalNAc(a1-3)]Gal
# Outline: as §1
# [20] = biological target: Fuc(a1-2)[GalNAc(a1-3)]Gal(b1-3)GlcNAc
# Outline: as §1
# [21] = biological target: Fuc(a1-2)[GalNAc(a1-3)]Gal(b1-4)Glc
# Outline: as §1
# [22] = biological target: Fuc(a1-2)[GalNAc(a1-3)]Gal(b1-4)GlcNAc
# Outline: as §1
# [23] = biological target: Fuc(a1-2)[GalNAc(a1-3)]Gal(b1-4)[Fuc(a1-3)]GlcNAc
# Outline: as §1
# [24] = biological target: Fuc(a1-2)[GalNAc(a1-4)]Gal(b1-4)GlcNAc
# Outline: as §1
# [25] = biological target: Fuc(a1-2)[GalNAc(b1-3)]Gal
# Outline: as §1
# Fuc(a1-3)GlcNAc = biological target: Fuc(a1-3)GlcNAc
# Outline: as §1
# [26] = biological target: Fuc(a1-3)[Gal(b1-4)]Glc6S
# Outline: as §1
# [27] = biological target: Fuc(a1-3)[Gal(b1-4)]GlcNAc
# Outline: as §1
# [28] = biological target: Fuc(a1-3)[Gal(b1-4)]GlcNAc(b1-2)Man(a1-3)[Fuc(a1-3)[Gal(b1-4)]GlcNAc(b1-2)Man(a1-6)]Man(b1-4)GlcNAc(b1-4)GlcNAc
# Outline: as §1
# [29] = biological target: Fuc(a1-3)[Gal(b1-4)]GlcNAc(b1-2)Man(a1-6)[Gal(b1-4)GlcNAc(b1-2)Man(a1-3)]Man(b1-4)GlcNAc(b1-4)GlcNAc
# Outline: as §1
# [30] = biological target: Fuc(a1-3)[Gal(b1-4)]GlcNAc(b1-3)Gal(b1-3)[Fuc(a1-4)]GlcNAc
# Outline: as §1
# [31] = biological target: Fuc(a1-3)[Gal(b1-4)]GlcNAc(b1-4)Gal(b1-4)[Fuc(a1-3)]GlcNAc
# Outline: as §1
# [32] = biological target: Fuc(a1-3)[Gal(b1-4)]GlcNAc(b1-4)Gal(b1-4)[Fuc(a1-3)]GlcNAc(b1-4)Gal(b1-4)[Fuc(a1-3)]GlcNAc
# Outline: as §1
# [33] = biological target: Fuc(a1-3)[Gal(b1-4)]GlcNAc6S
# Outline: as §1
# [34] = biological target: Fuc(a1-3)[Gal3S(b1-4)]Glc6S
# Outline: as §1
# [35] = biological target: Fuc(a1-3)[Gal3S(b1-4)]GlcNAc
# Outline: as §1
# [36] = biological target: Fuc(a1-3)[Gal3S(b1-4)]GlcNAc6S
# Outline: as §1
binder,measurement,setting,value
B1,glycan array binding signal (z-score),Fuc(a1-2)Gal,-0.04
same,glycan array binding signal (z-score),Fuc(a1-2)Gal(b1-3)GalNAc,-0.577
same,glycan array binding signal (z-score),[1],0.249
same,glycan array binding signal (z-score),[2],-0.208
same,glycan array binding signal (z-score),[3],-0.156
same,glycan array binding signal (z-score),Fuc(a1-2)Gal(b1-3)GlcNAc,-0.103
same,glycan array binding signal (z-score),[4],-0.003
same,glycan array binding signal (z-score),[5],-0.287
same,glycan array binding signal (z-score),Fuc(a1-2)Gal(b1-4)Glc,-0.411
same,glycan array binding signal (z-score),Fuc(a1-2)Gal(b1-4)Glc6S,-0.046
same,glycan array binding signal (z-score),Fuc(a1-2)Gal(b1-4)GlcNAc,-0.249
same,glycan array binding signal (z-score),[6],-0.353
same,glycan array binding signal (z-score),[7],-0.546
same,glycan array binding signal (z-score),[8],-0.249
same,glycan array binding signal (z-score),[9],-0.444
same,glycan array binding signal (z-score),[10],-0.48
same,glycan array binding signal (z-score),[11],-0.621
same,glycan array binding signal (z-score),Fuc(a1-2)Gal6S(b1-4)Glc,-0.125
same,glycan array binding signal (z-score),[12],-0.09
same,glycan array binding signal (z-score),[13],-0.306
same,glycan array binding signal (z-score),Fuc(a1-2)[Gal(a1-3)]Gal,-0.054
same,glycan array binding signal (z-score),[14],-0.291
same,glycan array binding signal (z-score),[15],-0.191
same,glycan array binding signal (z-score),[16],-0.228
same,glycan array binding signal (z-score),[17],0.119
same,glycan array binding signal (z-score),[18],-0.148
same,glycan array binding signal (z-score),[19],0.375
same,glycan array binding signal (z-score),[20],-0.284
same,glycan array binding signal (z-score),[21],0.698
same,glycan array binding signal (z-score),[22],1.17
same,glycan array binding signal (z-score),[23],-0.056
same,glycan array binding signal (z-score),[24],7.28
same,glycan array binding signal (z-score),[25],0.037
same,glycan array binding signal (z-score),Fuc(a1-3)GlcNAc,-0.603
same,glycan array binding signal (z-score),[26],-0.545
same,glycan array binding signal (z-score),[27],-0.187
same,glycan array binding signal (z-score),[28],-0.397
same,glycan array binding signal (z-score),[29],-0.56
same,glycan array binding signal (z-score),[30],-0.323
same,glycan array binding signal (z-score),[31],-0.31
same,glycan array binding signal (z-score),[32],-0.271
same,glycan array binding signal (z-score),[33],-0.305
same,glycan array binding signal (z-score),[34],0.193
same,glycan array binding signal (z-score),[35],-0.415
same,glycan array binding signal (z-score),[36],0.066
